# “And” between values parts separate entries of the source, which are not always exact repeats. Equal values may be shown once. Among all 270,000 compounds or so, about 5,800 (2.1%) were called active. Inconclusive results, whose numbers are uncertain, are shown with a selection of clear calls. Calls follow the shape of the dose curve; as a rule, active = well fitted inhibition curve with a large enough effect; inconclusive = small, poorly fitted or top-dose-only effect; inactive = flat fitted curve, though single readings scatter. Where the call is inconclusive, the potency comes from a doubtful curve fit.
# Target: Microtubule-associated protein tau (Homo sapiens) (UniProt P10636)
# UniProt P10636, sequence (P10636 whole entry, looked up): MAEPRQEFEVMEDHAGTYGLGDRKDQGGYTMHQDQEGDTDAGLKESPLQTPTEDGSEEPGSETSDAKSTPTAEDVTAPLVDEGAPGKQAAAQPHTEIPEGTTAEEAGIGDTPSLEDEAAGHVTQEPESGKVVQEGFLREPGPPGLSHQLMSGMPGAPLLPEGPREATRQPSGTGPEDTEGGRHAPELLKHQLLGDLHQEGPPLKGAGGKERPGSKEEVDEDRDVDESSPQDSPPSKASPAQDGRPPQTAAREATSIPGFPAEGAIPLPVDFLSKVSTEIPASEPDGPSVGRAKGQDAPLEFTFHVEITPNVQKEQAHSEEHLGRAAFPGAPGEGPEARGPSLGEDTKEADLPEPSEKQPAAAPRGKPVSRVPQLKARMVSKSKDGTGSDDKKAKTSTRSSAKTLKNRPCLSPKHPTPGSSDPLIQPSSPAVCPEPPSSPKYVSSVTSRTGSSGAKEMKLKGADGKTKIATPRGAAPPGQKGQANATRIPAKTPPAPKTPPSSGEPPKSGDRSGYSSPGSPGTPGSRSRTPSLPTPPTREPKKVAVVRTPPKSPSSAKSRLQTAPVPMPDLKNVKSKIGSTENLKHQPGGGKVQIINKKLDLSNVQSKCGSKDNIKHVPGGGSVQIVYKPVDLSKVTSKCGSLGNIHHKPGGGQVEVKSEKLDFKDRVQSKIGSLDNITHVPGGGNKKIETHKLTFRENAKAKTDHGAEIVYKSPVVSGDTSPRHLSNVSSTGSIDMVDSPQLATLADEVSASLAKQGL
# Assay: qHTS for Inhibitors of Tau Fibril Formation, Thioflavin T Binding; also: nearly all actives have a fitted effect of over 55% in size
# Details: recombinant tau K18 P301L, heparin-induced fibrillization, ThT fluorescence; series mostly up to 57.4 µM; activity, negative = inhibition: at the top concentration
# Summary of the method: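 Using a mix of unlabeled (15 uM) and Alexa 594-labeled (0.24 uM) tau K18 P301L, heparin-triggered fibrillization over 6 hr at 37 C was scored by ThT fluorescence.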
# % is scaled to controls: 0 for no effect and ±100 for the full control effect; potency is read from the fitted curve at half-maximal effect; tags tell the direction and shape of the fitted curve.
Structure (SMILES),"activity, negative = inhibition",Potency
O=C(Nc1ccc(Cl)c(Cl)c1)OCc1cccnc1,inactive: 18%,–
O=[N+]([O-])c1ccc(N2CCN(C(=S)Nc3ccc(F)cc3)CC2)cc1,–,"inconclusive: 5.62 µM [inhibitor, partial curve]"
O=C(c1ccc2nc(N3CCOCC3)sc2c1)N1CCC(Cc2ccccc2)CC1,–,"inconclusive: 28.2 µM [inhibitor, partial curve]"
Cc1cc(C)cc(NC(=O)C2CCCN(C(=O)c3cnn(-c4ccccc4)c3-n3cccc3)C2)c1 (configuration not stated),–,"inconclusive: 15.8 µM [inhibitor, partial curve, poor fit]"
Cc1ccc(S(=O)(=O)NC(=O)O[C@@H]2C(=O)c3cc(Br)ccc3O[C@H]2c2ccc3c(c2)OCO3)cc1,–,"inconclusive: 17.8 µM [inhibitor, partial curve, poor fit]"
Cc1nn2c(NCc3ccccn3)cc(C(C)C)nc2c1-c1ccccc1,–,"inconclusive: 31.6 µM [inhibitor, single point]"
CCOC(=O)C1CCCN(c2c(N3CCN(c4cccc(Cl)c4)CC3)c(=O)c2=O)C1 (configuration not stated),inactive: 0.121%,–
O=C(CCN1CCc2ccccc21)c1ccc2c(c1)OCCO2,–,"inconclusive: 12.6 µM [inhibitor, partial curve]"
CCCC1CCc2c(sc(N)c2C(N)=O)C1 (configuration not stated),–,"inconclusive: 15.8 µM [inhibitor, partial curve]"
O=C1N=C(N2CCN(c3ccccc3)CC2)S/C1=C\c1cn[nH]c1-c1ccccc1,–,"inconclusive: 2.82 µM [inhibitor, full curve]"
CC(=O)Nc1nonc1-c1nnc(SCC(=O)Nc2cc(C)cc(C)c2)n1-c1ccccc1,inactive: -10.4%,–
Cc1ccc(N=CC2=C(O)CC(c3ccco3)CC2=O)cc1 (configuration not stated),–,"inconclusive: 17.8 µM [inhibitor, partial curve]"
Cc1nc(-c2ccc(Cl)cc2)sc1CCNC(=O)c1cccs1,–,"inconclusive: 2 µM [inhibitor, full curve, poor fit]"
COC(=O)c1ccc(-c2ccc(/C=N/N3C(=O)C4C5C=CC(C6CC56)C4C3=O)o2)cc1 (configuration not stated),–,"inconclusive: 20 µM [inhibitor, partial curve]"
Cc1ccc(C(=O)Nc2ccc(OCc3cc(=O)n4c(C)csc4n3)cc2)cc1,–,"inconclusive: 1.26 µM [inhibitor, full curve]"
Cc1ccc(NC(=O)Cc2csc(C)n2)c(C)c1,inactive: 2.98%,–
Cc1cc(C(=O)COc2ccccc2C(N)=O)c(C)n1C,–,"inconclusive: 5.01 µM [inhibitor, partial curve]"
CCN(CC)C(=O)CSC(=Nc1ccccc1F)NC#N,–,"inconclusive: 28.2 µM [inhibitor, single point]"
O=C1Nc2ccccc2/C1=N/N=C/c1cccc(O)c1,–,active: 11.2 µM
CCc1cccc(NC(=O)Cn2c(=O)n(CCCCCC(=O)NCc3ccc(F)cc3)c(=O)c3sccc32)c1,–,"inconclusive: 25.1 µM [activator, partial curve]"
CC1CCN(S(=O)(=O)c2ccc3nc(NCc4ccc(N(C)C)cc4)ccc3c2)CC1,–,"inconclusive: 25.1 µM [inhibitor, single point]"
Cc1ccc(C)c(N2CCN(C(=O)c3cc4cc5ccc(C)cc5nc4o3)CC2)c1,–,"inconclusive: 3.55 µM [inhibitor, partial curve, poor fit]"
C/C(=N\NC(=O)CCCNc1ccc(C)cc1)c1ccccn1,inactive: -0.755%,–

Structure (SMILES),"activity, negative = inhibition",Potency
Cc1cc(N2CCN(c3ccccc3)CC2)nc(-c2ccccc2O)n1,–,"inconclusive: 4.47 µM [inhibitor, full curve]"
Cn1c(CS/C(N)=N/N=C/c2ccccc2)c(Br)c(=O)n1-c1ccccc1,–,"inconclusive: 31.6 µM [inhibitor, single point]"
C#CCOCCOCCOCCNc1nc(N2CCN(C(=O)[C@H]([C@@H](C)CC)n3cc(CCCN=C(N)N)nn3)CC2)nc(N2CCN(C(=O)[C@H](C)n3cc(CCCN=C(N)N)nn3)CC2)n1,inactive: 3.81%,–
Cc1ccc(C)c(N2CCN(C(=O)C3CCC(CNS(=O)(=O)c4cccs4)CC3)CC2)c1 (configuration not stated),–,"inconclusive: 8.91 µM [inhibitor, partial curve]"
CCNC(=O)Nc1cc(OC)c(OC)cc1C(=O)O,–,"inconclusive: 8.91 µM [inhibitor, full curve]"
Cc1ccc(NC(=O)C(=O)NC2CCCCC2)cc1,–,"inconclusive: 0.891 µM [inhibitor, partial curve]"
N#C/C(=C\c1ccc(Cl)cc1)c1nc2ccccc2o1,–,"inconclusive: 14.1 µM [inhibitor, partial curve]"
O=C(NCc1ccco1)c1sc2cc(F)ccc2c1Cl,–,"inconclusive: 31.6 µM [inhibitor, partial curve]"
O=C(COC(=O)/C=C/c1ccco1)Nc1cccc([N+](=O)[O-])c1,inactive: 1.68%,–
Cc1nc2ccccn2c1C(=O)N=Nc1c(O)n(CCC(C)C)c2ccccc12,–,"inconclusive: 31.6 µM [inhibitor, partial curve]"
Cc1ccc(CNC(=O)c2cn(C3CCCCC3)c(=O)c3c2c2ccccc2n3C)o1,–,"inconclusive: 39.8 µM [inhibitor, single point]"
Cc1cccc(S(=O)(=O)Nc2cccc3c2C(=O)c2ccccc2-3)c1,–,"inconclusive: 14.1 µM [inhibitor, partial curve]"
CCCCN1Cc2cc(C(=O)c3cc(F)ccc3O)cnc2NC1=O,–,"inconclusive: 28.2 µM [inhibitor, partial curve]"
CCN(CC)CCCN1C=C2C(=O)C(C)(OC(=O)C3CCCC3)C(=O)C=C2C=C1c1ccsc1 (configuration not stated),–,"inconclusive: 8.91 µM [inhibitor, partial curve] and inconclusive: 3.16 µM [inhibitor, partial curve]"
C=CCc1cc(Cl)ccc1OCCNCCOC,–,"inconclusive: 15.8 µM [inhibitor, partial curve]"
Oc1ccc(N2CCN(C(=S)NCCc3ccccc3)CC2)cc1,–,active: 14.1 µM
CC(=O)Nc1nc2c(c3c1c(=O)oc1ccccc13)CCCC2,inactive: -3.9%,–
CCn1nc(C)c2c(-c3ccccc3)cc(=O)n(C(C)C(=O)Nc3ccc(OC)c(OC)c3)c21 (configuration not stated),–,"inconclusive: 39.8 µM [inhibitor, single point]"
COc1cc(/C=N/N2C(=O)c3ccccc3NC2(C)c2cccc([N+](=O)[O-])c2)cc(Br)c1O (configuration not stated),–,"inconclusive: 17.8 µM [inhibitor, partial curve]"
O=C1C(Cl)=C(N2CCC(C(=O)O)CC2)C(=O)c2ccccc21,–,active: 4.47 µM
CC(=O)Nc1ccc(Nc2ncnc3c2cnn3-c2cccc(C)c2)cc1,–,"inconclusive: 0.891 µM [inhibitor, full curve]"
Cc1cccc(C(=O)N/N=C/c2ccc(OC3CSC3)cc2)c1,–,"inconclusive: 0.794 µM [inhibitor, full curve]"
COc1ccc(Cn2c(O)c(C=Nc3ccccc3)c3ccccc3c2=O)cc1,inactive: -2.98%,–

Structure (SMILES),"activity, negative = inhibition",Potency
COc1ccc(-c2cc(C(=O)NN)[nH]n2)cc1OC,–,"inconclusive: 3.55 µM [inhibitor, partial curve, poor fit]"
O=C(NCCc1ccccc1)c1c[nH]c2ccc(S(=O)(=O)Nc3ccc(F)cc3F)cc2c1=O,inactive: 20.1%,–
c1ccc(CC2CCN(C3=Nc4cccc5cccc3c45)CC2)cc1,–,"inconclusive: 22.4 µM [inhibitor, partial curve]"
CC(=NC1CCCC1)c1c(C)[nH]n(-c2nc3ccccc3s2)c1=O,–,"inconclusive: 44.7 µM [inhibitor, single point]"
CCN1CCc2c(C#N)c(N3CCCCC3)nc(NCc3ccccc3)c2C1,–,"inconclusive: 25.1 µM [inhibitor, single point]"
COc1cc(CNc2ccc(O)cc2)cc(Br)c1OCc1ccccc1,–,active: 25.1 µM
CCOc1ccc(NC(=O)NCCN2CCN(c3cc(Cl)ccc3C)CC2)cc1,–,"inconclusive: 25.1 µM [inhibitor, partial curve]"
CC(Cc1ccccc1)NC(=S)CN1CCCC1=S (configuration not stated),inactive: -2.43%,–
Cn1c(SCC(=O)c2ccc3c(c2)OCCO3)nnc1C(F)(F)F,inactive: -7.28%,–
Cc1ccc(C)c(OCC(=O)Nc2sc3c(c2C#N)CCCC3)c1C,–,"inconclusive: 22.4 µM [inhibitor, single point]"
CCC1CCCCN1CCCNC(=O)c1ccc2c(c1)c(C)c(C)n2CC (configuration not stated),–,"inconclusive: 28.2 µM [inhibitor, single point]"
S=C(NCCN1CCOCC1)Nc1ccc(Nc2ccccc2)cc1,–,"inconclusive: 22.4 µM [inhibitor, partial curve]"
Cc1ccc(C)c(NC(=O)c2ccccc2NS(=O)(=O)c2cc([N+](=O)[O-])ccc2C)c1,–,"inconclusive: 12.6 µM [inhibitor, partial curve]"
CCOc1cc(S(=O)(=O)Nc2ccccn2)ccc1F,inactive: 3.1%,–
Cc1cc(O)c2c(C)c(CC(=O)NCc3ccccc3Cl)c(=O)oc2c1,inactive: -3.59%,–
O=C(CCl)Nc1ccc(N2CCCCCC2)cc1,–,"inconclusive: 25.1 µM [inhibitor, partial curve]"
Cc1ccc(OCc2ccc(C(=O)NN)o2)cc1C,–,"inconclusive: 31.6 µM [inhibitor, partial curve]"
Cc1ccc(NC(=O)c2c(NC(=O)CCC(=O)O)sc3c2CCCCC3)cc1,–,active: 25.1 µM
CCc1nc(SC)ncc1C(=O)NCc1cccc(Br)c1,–,"inconclusive: 39.8 µM [inhibitor, single point]"
COc1ccc(-c2cn3ccsc3n2)cc1,–,"inconclusive: 20 µM [inhibitor, partial curve]"
COC(=O)Cc1[nH]nc2c1C(c1c[nH]c3ccccc13)C(C#N)=C(N)O2 (configuration not stated),–,active: 25.1 µM
